Measured values from PubChem BioAssay AID504706 (National Center for Advancing Translational Sciences (NCATS), 2011).
Screen size: about 320,000 compounds; about 200 (0.062%) were called active. Inconclusive results, whose numbers are uncertain, are shown with a selection of clear calls. Calls come from the whole dose curve; as a rule, active = well fitted activation curve with a large enough effect; inconclusive = small, poorly fitted or top-dose-only effect; inactive = no such curve, though single readings can be large or run the other way. Potencies of inconclusive entries are left out as doubtful fits.

Test: qHTS assay for re-activators of p53 using a Luc reporter; note: nearly all actives have a fitted effect of over 45% in size
Settings: H1299 p53-A138V BP100-luciferase reporter, luminescence, 24 h; series mostly up to 92.2 µM
Method in brief: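 p53-null H1299 cells stably carrying temperature-sensitive p53-A138V and a BP100-luciferase reporter were pinned with compounds (4-point, 1:5 series) and held 24 hrs at 37 deg C. Luminescence was read 10 min after detection reagent.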
Potency is the fitted concentration of half-maximal effect; tags give direction and shape of the fitted curve.

Structure (SMILES)	Potency
COc1ccc(-c2nc3cc(NC(=S)NC(=O)Cc4ccccc4)ccc3o2)cc1	inactive
COc1ccc(-c2noc(CSc3ccccc3)n2)cc1OC	inconclusive [activator, partial curve, poor fit]
O=C(NCCc1ccccc1)C1CCN(C(=O)c2ccc(F)cc2)CC1	inconclusive [activator, partial curve, poor fit]
CCN(CC)CCNC(=O)CCc1c(C)nc2c(c(C)nn2-c2ccc(C)cc2)c1C	inactive
CCOC(=O)Cc1c(C)nc2c(-c3ccccc3)c(C)[nH]n2c1=O	inactive
Cc1cccc(NC(=S)NC(=O)c2oc3ccccc3c2C)n1	inconclusive [activator, partial curve, poor fit]
O=C(Nc1nc2c(s1)CCCC2)c1cc2n(n1)C(C(F)(F)F)CC(C1CC1)N2 (centres undefined)	inconclusive [activator, single point]
CCc1ccc(-c2csc(NC(=O)COC(=O)CCc3nc4ccccc4s3)n2)cc1	inconclusive [activator, full curve, poor fit]
O=C(Cn1cnc2ccccc2c1=O)Nc1ccc2c(c1)OCCO2	inconclusive [activator, full curve, poor fit]
Cc1cc(C)c2c(n1)nn1c(NCCCN(C)C)cc(C)nc21	inactive
COc1ccccc1NS(=O)(=O)c1ccc(C(=O)Nc2ncccc2O)cc1	inconclusive [activator, partial curve, poor fit]
Cc1cc(C(=O)N/N=C/c2ccc([N+](=O)[O-])cc2)c2ccccc2n1	inactive
Cc1ccc(NC(=O)COC(=O)c2nn(-c3ccc(Cl)cc3)cc2O)cc1	inconclusive [activator, full curve, poor fit]
O=C(NNC(=O)c1cnccn1)c1ccc(Cl)c(Cl)c1	inconclusive [activator, single point]
Cc1cc(C)c2c(N)c(C(=O)Nc3ccc(F)cc3)sc2n1	inconclusive [activator, full curve, poor fit]
O=C(c1ccc(F)cc1)N(Cc1cccs1)C1CCS(=O)(=O)C1 (centres undefined)	inactive
O=C1CC(NC23CC4CC(CC(C4)C2)C3)C(=O)N1c1ccc2c(c1)OCO2 (centres undefined)	inconclusive [activator, full curve, poor fit]
Fc1cccc(Cc2noc(CN3CCCCC3c3ccccn3)n2)c1 (centres undefined)	inactive
NC(=O)CSc1nnc(NC(=O)c2ccc3ccccc3c2)s1	inconclusive [activator, full curve, poor fit]
COc1cccc(C(=O)CC(=O)C(=O)Nc2cccc([N+](=O)[O-])c2C)c1	inactive
CC[C@]12c3[nH]c4ccc(OC)cc4c3CCN1C(=O)C(CC(=O)NCCCOC)C[C@@H]2C(=O)N1CCN(C(=O)c2ccco2)CC1 (some centres undefined)	inactive
COc1ccccc1CNC(=O)c1ccccc1OC	inactive
Cc1ccc(NC(=O)Nc2ccc(F)cc2)nc1	inconclusive [activator, partial curve]

Structure (SMILES)	Potency
COc1ccc(-n2cnc3cc(NCc4cccs4)ccc32)cc1	inconclusive [activator, single point]
NC(=O)CCS(=O)(=O)CCN1CCCCC1	inconclusive [activator, single point]
CCN(CC)C(=S)NC(=O)c1ccc(Cl)cc1Cl	inactive
CC(=O)c1cccc(NC(=O)c2cc(-c3ccc(F)cc3)on2)c1	inconclusive [activator, single point]
N/C(=N\OC(=O)CCc1ccccc1)c1ccc(Cl)cc1	inconclusive [activator, single point]
O=[N+]([O-])c1cccn2cc(-c3ccc(Br)cc3)nc12	inconclusive [activator, full curve]
O=C(NCc1ccc(Cl)cc1)c1noc2c1CCCCC2	inconclusive [activator, partial curve, poor fit]
COc1cccc(/C=C/C(=O)c2c(O)cc(C)oc2=O)c1O	inconclusive [activator, full curve, poor fit]
Cc1nc2ccccc2c(=O)n1/N=C/c1ccccn1	inconclusive [activator, partial curve, poor fit]
CS(=O)(=O)N1CCCC(C(=O)NCCc2ccc(Cl)cc2)C1 (centres undefined)	inconclusive [activator, partial curve, poor fit]
CCn1cc(C(=O)Nc2ccc(F)c(F)c2)cn1	inconclusive [activator, partial curve, poor fit]
CCOc1cc(CN2CCCC(N3CCN(c4ccc(F)cc4)CC3)C2)ccc1OC (centres undefined)	inconclusive [activator, single point]
Cc1ccc(SCCNC(=O)c2ccc(C)c(S(=O)(=O)Nc3ccccc3C)c2)cc1	inactive
O=[N+]([O-])c1ccc(COc2cccc(CNc3ccc(F)cc3)c2)cc1	inconclusive [activator, full curve]
O=C(Cc1ccc(-n2cccc2)cc1)NCc1ccccc1Cl	inactive
O=C(Cc1c(Cl)cccc1Cl)N/N=C/c1cccnc1	inactive
O=C(COc1ccc2c(c1)C(=O)CC1(CCCCC1)O2)NCc1ccccn1	inactive
Cc1ccc(CNC(=O)COC(=O)C2CC2)cc1	inconclusive [activator, single point]
CC(C)NC(=O)c1ccccc1-c1nc(-c2ccccc2Cl)no1	inactive
NC(=O)C1CCN(C(=O)Nc2ccccc2)CC1	inactive
O=C(NCc1nc2ccccc2[nH]1)c1ccc(S(=O)(=O)N2CCCC2)cc1	inconclusive [activator, single point]
O=C(COC(=O)COc1cccc(Br)c1)Nc1c(Cl)cccc1Cl	inactive
Cc1nc2ccccc2n1CCOc1ccc(F)cc1	inactive

Structure (SMILES)	Potency
Cc1cc(NC(=O)/C=C/c2ccccc2Cl)no1	inconclusive [activator, full curve, poor fit]
O=S(=O)(c1cccc2nsnc12)N1CCc2ccccc21	inconclusive [activator, full curve, poor fit]
O=C(Nc1nc(-c2ccccn2)cs1)c1ccco1	inconclusive [activator, partial curve, poor fit]
CC(=O)c1c(C)[nH]c(C(=O)OCc2ccccc2)c1C	inconclusive [activator, partial curve, poor fit]
COC(=O)c1cn[nH]c1NC(=S)Nc1ccc(Cl)c(Cl)c1	inconclusive [activator, partial curve, poor fit]
O=C(CC12CCC(CC1)C2)NCc1ccc2c(c1)OCO2	inconclusive [activator, partial curve, poor fit]
Cc1cc(CN2CCCC(C(=O)Nc3ccc(-c4nc5ccccc5[nH]4)cc3)C2)n[nH]1 (centres undefined)	inconclusive [activator, partial curve, poor fit]
O=C(NC(CSCc1ccccc1)C(=O)N/N=C/c1ccc(O)cc1O)c1ccc([N+](=O)[O-])cc1 (centres undefined)	inconclusive [activator, single point]
CN1CCN(NC(=O)/C=C/c2ccc(C(C)(C)C)cc2)CC1	inconclusive [activator, single point]
Cc1nc2cc(Nc3nnc(-c4ccccc4)c4ccccc34)ccc2n1C	inconclusive [activator, full curve, poor fit]
CSc1nnc(-c2ccco2)c(-c2ccco2)n1	inconclusive [activator, single point]
CCOC(=O)c1[nH]c2ccc(OC)cc2c1NC(=O)CN1CCN(c2ccccn2)CC1	inactive
Cc1cc(C(=O)CSc2nc3ccccc3o2)c(C)n1C1CC1	inconclusive [activator, partial curve, poor fit]
O=S(=O)(c1ccccc1Cl)N1CCC(O)(c2ccc3c(c2)OCO3)CC1	inconclusive [activator, partial curve, poor fit]
O=C(N/N=C/c1cn(-c2ccccc2)nc1-c1cc2ccccc2o1)c1cccnc1	inconclusive [activator, partial curve, poor fit]
COc1cccc(NC(=O)c2ccc3c(c2)OCO3)c1	inconclusive [activator, partial curve, poor fit]
C/C(=N\NC(=O)c1cc(C)[nH]n1)C(C)(C)C	inconclusive [activator, partial curve, poor fit]
Cc1noc(C(=O)Nc2ccc3c(c2)OCO3)c1Cl	inconclusive [activator, partial curve, poor fit]
O=C(NCCN1CCCCC1)Nc1cccc(C(F)(F)F)c1	inconclusive [activator, partial curve, poor fit]
CC(=O)Nc1ccc(S(=O)(=O)N(C)CC(=O)OCC(=O)c2ccc[nH]2)cc1	inactive
Cc1ccc(NC(=O)/C=C/c2ccco2)nc1	inconclusive [activator, full curve, poor fit]
COc1ccccc1-c1nn2c(-c3ccco3)nnc2s1	inconclusive [activator, full curve, poor fit]
CCC(C(=O)OCC(=O)Nc1cc(C)ccc1OC)c1ccccc1 (centres undefined)	inactive
